According to PubChem BioAssay AID624296 (National Center for Advancing Translational Sciences (NCATS), 2012):
Out of some 350,000 compounds screened, about 9,900 (2.8%) were called active. Inconclusive means that the source gave no clear call. Such entries were picked first, then a sample of the others. The call rests on the fitted dose curve; in most records, active means well fitted activation curve with a large enough effect; inconclusive means small, poorly fitted or top-dose-only effect; inactive means no such curve, though single readings can be large or run the other way. Potencies of inconclusive entries are left out as doubtful fits.

Experiment: A quantitative high throughput screen for small molecules that induce DNA re-replication in MCF 10a normal breast cells. Further: nearly all actives have a fitted effect of over 50% in size. On activity, positive = re-replication: % of control where 0% means no effect.
Conditions: MCF 10A DNA re-replication, Hoechst nuclear intensity, 48 h; activity, positive = re-replication: at 46.1 µM (top of the series)
Potency means the concentration at half of the fitted maximal effect; tags describe the fitted curve by direction and shape.

Compound | Potency | activity, positive = re-replication
Cc1ccc(NC2=NC(c3ccc(F)cc3)n3c(nc(C)cc3=O)N2)cc1 (centres undefined) | inconclusive [activator, partial curve, poor fit] | 
Cc1nc2c(C#N)cnn2c2c1CCNN2C | inconclusive [activator, single point] | 
O=Cc1cccc(Oc2ccc([N+](=O)[O-])cc2[N+](=O)[O-])c1 | inconclusive [activator, single point] | 
Cc1noc(/C=C/c2cccs2)c1S(=O)(=O)N1CCC(C(=O)NCCCN2CCC(C)CC2)CC1 | inconclusive [activator, single point] | 
CN(c1ccccc1)S(=O)(=O)c1cccc(NC(=O)CC(C)(C)C)c1 |  | inactive: -0.803%
CCCC(C(=O)NCC1CCCO1)N(Cc1ccccc1)C(=O)CNS(=O)(=O)c1ccccc1 (centres undefined) | inconclusive [activator, single point] | 
COc1ccc(CNC(=O)CSc2nnc(Cn3nnc4ccccc43)n2C)cc1 | inconclusive [activator, single point] | 
COC(=O)NC(=S)Nc1ccc(Oc2ccc(Cl)cc2Cl)c(Cl)c1 | inconclusive [activator, partial curve] | 
COc1ccc2c(C)c(CC(=O)N3CCN(C(=O)C4COc5ccccc5O4)CC3)c(=O)oc2c1 (centres undefined) | inconclusive [activator, single point] | 
CCCSc1cc(NCCOC(=O)CCC)c([N+](=O)[O-])c2nonc12 | inconclusive [activator, single point] | 
Cc1ccc(NC(=O)CSCC(=O)OC(C)C(=O)Nc2ccccc2C)cc1 (centres undefined) |  | inactive: -3.68%
CC1CCC2(CC1)SCC(=O)N2c1ccc(F)cc1 (centres undefined) | inconclusive [activator, single point] | 
COc1ccccc1C(=O)Nc1nc2ccccc2s1 |  | inactive: 16.7%
COc1ccccc1N1CCN(C(=O)COc2cc(C)ccc2C)CC1 |  | inactive: 11.8%
Cc1ccc([N+](=O)[O-])c(NC(=O)COC(=O)C2CC3CCCC(C2)C3=O)c1C (centres undefined) |  | inactive: 1.77%
Cc1c(/C=N/O)c2ccccn2c1C(=O)c1ccc(F)cc1 |  | inactive: 2.92%
COc1cc(CN(CCN(C)C)Cc2ccccc2)ccc1OCc1ccccc1 | inconclusive [activator, full curve, poor fit] | 
Cc1cc(C)c(CN2CCN(C(=O)Cn3cnc(C(=O)Nc4ccc(C)c(C)c4)n3)CC2)c(C)c1 | inconclusive [activator, full curve, poor fit] | 
c1ccc(-c2noc(CN3CCN(c4cnccn4)CC3)n2)cc1 | inconclusive [activator, full curve, poor fit] | 
O=C1C(=O)N(Cc2cccs2)c2ccccc21 | inconclusive [activator, single point] | 
Cc1ccc(C(=O)NC(=S)Nc2ccc(S(=O)(=O)N(C)c3ccccc3)cc2)cc1 |  | inactive: 5.25%
O=C(c1ccncc1)N1N=C(c2ccc(Cl)cc2)CC1c1ccccc1O (centres undefined) | inconclusive [activator, partial curve, poor fit] | 

Compound | Potency | activity, positive = re-replication
COC(=O)c1ccc2c(=O)n(-c3ccc(OC)cc3)c(=S)[nH]c2c1 |  | inactive: 0.197%
CCc1c(O)nc(SCC(=O)Nc2ccccc2)n(-c2ccccc2)c1=O | active: 3.66 µM | 
CCOc1ccc(C(=O)NN2C(=S)NC(C)(C)C=C2C)cc1 |  | inactive: -0.436%
Cc1ccc(CN2CC34C=CC(O3)C(C(=O)NCc3ccco3)C4C2=O)cc1 (centres undefined) |  | inactive: -0.148%
Cc1cc(-n2c(=O)c(C#N)cc3c(=O)n4cccc(C)c4nc32)no1 | inconclusive [activator, single point] | 
Cc1ccc(C(=O)CCC(=O)N2CCN(C(=O)c3ccco3)CC2)cc1 |  | inactive: 3.06%
CCc1nc(C)cn1S(=O)(=O)c1cc(Br)ccc1OC |  | inactive: 3.69%
CN(c1ccccc1)S(=O)(=O)c1ccc(C(=O)NCC(c2ccco2)N2CCCCC2)cc1 (centres undefined) | inconclusive [activator, partial curve, poor fit] | 
CCOC(=O)Cc1[nH]nc2c1C(C1C=CCCC1)C(C#N)=C(N)O2 (centres undefined) | inconclusive [activator, single point] | 
CC(C)CN(CC(C)C)C(=O)Cc1coc2ccc3ccccc3c12 | inconclusive [activator, single point] | 
COCCCN(Cc1ccco1)C(=O)CSc1nc2ncccc2[nH]1 | inconclusive [activator, single point] | 
COCCCNC(=O)c1c(N)n(/N=C/c2cccnc2)c2nc3ccccc3nc12 | inconclusive [activator, partial curve, poor fit] | 
Cc1ccc(O)c(C(=O)CC(=O)c2ccccc2Cl)c1 | inconclusive [activator, single point] | 
CC(NC(=O)CNC(=O)C1CCCCC1)c1ccc(S(N)(=O)=O)cc1 (centres undefined) |  | inactive: -24.2%
CCOC(=O)/C=c1\s/c(=C\c2ccc(C#N)cc2)c(=O)n1CC(=O)NCc1ccco1 | inconclusive [activator, partial curve, poor fit] | 
CC(=O)Nc1ccc(S(=O)(=O)N2CCC(C(=O)NCCc3ccc(Cl)cc3)CC2)cc1 | inconclusive [activator, single point] | 
CCOc1ccc(NS(=O)(=O)c2ccc(C(=O)N(C)Cc3cccc(OC)c3OC)cc2)cc1 | inconclusive [activator, partial curve, poor fit] | 
Cc1ccccc1NC(=O)NC(N)=O |  | inactive: -2.07%
CC1=C(n2nnc3ccccc32)C(c2ccccc2)C(C#N)=C(N)O1 (centres undefined) |  | inactive: 4.52%
CCC(C)c1ccc(NC(=O)c2[nH]c(C)c(C(C)=O)c2C)cc1 (centres undefined) | inconclusive [activator, single point] | 
N#Cc1cccc(NC(=O)NCCc2c[nH]c3ccccc23)c1 | inconclusive [activator, single point] | 
CC(CCc1ccccc1)NC(=O)COC(=O)c1cccc2ccccc12 (centres undefined) | inconclusive [activator, single point] | 
